Reference: the RNAGym collection of RNA variant scans (doi:10.7554/elife.90254)
The source gives no read counts; variants with many changes may rest on few reads.

B1: LINE1-mini (parent)
chain: GGCAGAGCUCAACACAGCGUGGCAAAGUGGCUGUGGCUAGACUGCC

Variants of: B1
Experiment: self-cleavage, relative activity (ratio to wild type); higher = more cleavage; in vitro, sequencing; the parent is a self-cleaving ribozyme
With GGCAGAGCUCAAGACAGCGUGGCAAAGUGGCUGUGGCUAGAGUGUG [C13G C42G C45U C46G] the self-cleavage was 0.03. GGCAGAGCUCAAGAGAUCGUGGCAAAGUGGCUGUGGCUAGACUGCC [C13G C15G G17U] gave a self-cleavage of 0.07. For GGCAGAGCUCAAGACAUCGUGGCAAAGUGGCUGUGGCUAGAAUGCC [C13G G17U C42A], the self-cleavage was 0.02. GGCAGAGCUCAAGACAGCUUGGCAAAGUGACUGUGGCUAGACUGCC [C13G G19U G30A] gave a self-cleavage of 0.01. GGCAGAGCUCAAGACAUCGUGGCAAUGUGGCUGUGGCUAGACUGCC [C13G G17U A26U] gave a self-cleavage of 0.02. In the case of GGCAGAGCUCAAGACAGCGUGACAAAGUAGCUGUGGCUCGACUGCC [C13G G22A G29A A39C], the self-cleavage is reported as 0.52. In the case of GGCAGAGCUCAAGACUGCGUGGCAAAGUGACUGUGGCUAGACUGCC [C13G A16U G30A], the self-cleavage is reported as 0.08. Work on GGCAGAGCUCAAGACGGUGUGGCAAAGUGGUUGUGGCUAGACUGCC [C13G A16G C18U C31U] yielded a self-cleavage of 0.03. In the case of GGCAGAGCUCAAGACAGCGUGGCAAAGUGGCUUUGGCUAGAGUGCC [C13G G33U C42G], the self-cleavage is reported as 0.02. For GGCAGAGCUCAAAACAGCGUGGCAAAGGGUCUGUUGAUAGACUCCA [C13A U28G G30U G35U C37A G44C C46A], the self-cleavage was 0.03. In the case of GGCAGAGCUCAAGACAGCGUGGCAUAGUGGCAGUUGCUAGACUGCC [C13G A25U U32A G35U], the self-cleavage is reported as 0.02. GGCAGAGCUCAAGACAGCGUGGCAAAGUUGCUAUGGCUAGACUGCC [C13G G29U G33A] showed a self-cleavage of 0.08. Work on GGCAGAGCUCAAGAGAGCGUGUCAAAGUGCCUGUGGCUAGACUGCC [C13G C15G G22U G30C] yielded a self-cleavage of 0.02. GGCAGAGCUCAAGACGGCGUGGCAAAGUGGCUAUGGCUAGAUUGCC [C13G A16G G33A C42U] showed a self-cleavage of 0. GGCAGAGCUCAAGACAGCGUGGCAAAGUGGCUGUGGGUAGACUUCC [C13G C37G G44U] gave a self-cleavage of 0.07. GGCAGAGCUCAAGACAACGUGGCAAAGUGGCUCUGGCUAGACUACC [C13G G17A G33C G44A] gave a self-cleavage of 0.01. GGCAGAGCUCAAAACAGCGUGGCAAAGUGGCUGUGGCCAGACGGGC [C13A U38C U43G C45G] showed a self-cleavage of 0.02. For GGCAGAGCUCAAGACAGCGUGGCGAAGUAGAUGUGGCUAGCCUGCG [C13G A24G G29A C31A A41C C46G], the self-cleavage was 0.02. Variant GGCAGAGCUCAAGACAGCGUGGCAACGUGGCUGUGGCUAGACUGGC [C13G A26C C45G] has a self-cleavage of 0.03. GGCAGAGCUCAAGAAAGCGUAGCAAGGUGGCUGUGGCUAGACUGCC [C13G C15A G21A A26G] showed a self-cleavage of 0.12. Work on GGCAGAGCUCAAGAGAGCGUGGCAAAGCGGUUGUGGCUAGACUGCC [C13G C15G U28C C31U] yielded a self-cleavage of 0.03. Work on GGCAGAGCUCAAGACAUCAUGGCUAAAUCGCUGUGGCUAGACUGCC [C13G G17U G19A A24U G27A G29C] yielded a self-cleavage of 0.02. For GGCAGAGCUCAAAACAGCGUGGCAAAGGGGCUGUGGCUAGAGUGCC [C13A U28G C42G], the self-cleavage was 0.02. For GGCAGAGCUCAAGACAGCGUGGCAAUGUGGCUGUGGCUAAACUGCC [C13G A26U G40A], the self-cleavage was 0.08. Variant GGCAGAGCUCAAGAGAGCGUGGCAAAGUGGCGGUGGCUAGACUGCC [C13G C15G U32G] has a self-cleavage of 0.05. GGCAGAGCUCAAGACCGCGUGACACAGUGGCUGUGGCUAGACUGCC [C13G A16C G22A A25C] gave a self-cleavage of 0. Variant GGCAGAGCUCAAGACAGGGUGGCAAUGUGGCUGUGGCUAGACUGCC [C13G C18G A26U] has a self-cleavage of 0.03. For GGCAGAGCUCAAGACAGCGUGGGAUAGUGGUUGUGGCUAGACUGCC [C13G C23G A25U C31U], the self-cleavage was 0.04. Variant GGCAGAGCUCAAGAAUGCGUGGGAAAAUGGCUGUGCCUAGACUGCC [C13G C15A A16U C23G G27A G36C] has a self-cleavage of 0.04. With GGCAGAGCUCAAGUAAGCGUGCCAAAGUGGCUGUGGCUAGACUGCC [C13G A14U C15A G22C] the self-cleavage was 0.03. GGCAGAGCUCAAGACAGCGUCGCACAGUGGCUGUGGCAAGACUGCC [C13G G21C A25C U38A] showed a self-cleavage of 0.13. Work on GGCAGAGCUCAAGACAGCGUGGCAAAGUGGCUGUGGUUAGACUGCG [C13G C37U C46G] yielded a self-cleavage of 0.05. GGCAGAGCUCAAGACAGCGUGGAAAUGUGGCUGUGGCUAGACUGCC [C13G C23A A26U] gave a self-cleavage of 0.26. Work on GGCAGAGCUCAAGACAGGGUGGCAAAGGGGCUGUGGCUAGACUGCC [C13G C18G U28G] yielded a self-cleavage of 0.32. Variant GGCAGAGCUCAAGACAACGUGGCAAAGUUGCUGUGGCUAGACUGCC [C13G G17A G29U] has a self-cleavage of 0.07. Variant GGCAGAGCUCAAGACAGCGUGGCAAAGUGGGUGUGGCAAGACUGCC [C13G C31G U38A] has a self-cleavage of 0.03. For GGCAGAGCUCAAGACAGGGUGGCACAGUGGCUGUGGCUAUACUGCC [C13G C18G A25C G40U], the self-cleavage was 0.02. GGCAGAGCUCAAGACAGCGUGGAAAAGUGGCUGUGGCUUGACUGCC [C13G C23A A39U] gave a self-cleavage of 0.02. With GGCAGAGCUCAAGACAGCGUGGCAAACUGGCUGUGGCUAUACUGCC [C13G G27C G40U] the self-cleavage was 0.01. Work on GGCAGAGCUCAAGACAGCGUGGCUAAGUCCCUGUGGCUAGACUGCC [C13G A24U G29C G30C] yielded a self-cleavage of 0.1. With GGCAGAGCUCAAGACAGCGUAGCAAAAUGGCUGUGGCUAGACUGCA [C13G G21A G27A C46A] the self-cleavage was 0.25. For GGCAGAGCUCAAGACGGCGUGGAAAAGUGGCAGUGGCUAGACUGCC [C13G A16G C23A U32A], the self-cleavage was 0.02. GGCAGAGCUCAAGACAGCAUGGCAAAGUGGCUGCGGUUAGACGGCC [C13G G19A U34C C37U U43G] showed a self-cleavage of 0.02. With GGCAGAGCUCAAGACAGCGUGGCAAUGGGGCUGUGGCUAGACUGGC [C13G A26U U28G C45G] the self-cleavage was 0.06. Work on GGCAGAGCUCAAGACACCGUGGCAAAAUGGAUGUCCCUAGACUGCC [C13G G17C G27A C31A G35C G36C] yielded a self-cleavage of 0.01. GGCAGAGCUCAAGACAGCGUGGCAAAGUGACUGGGGCUAGACUGCC [C13G G30A U34G] gave a self-cleavage of 0. Work on GGCAGAGCUCAAGACAGCUUGGCAAAGUGGCCGUAGCUAGACUGCC [C13G G19U U32C G35A] yielded a self-cleavage of 0.04. In the case of GGCAGAGCUCAAGACAGCGUCACAAAGUAGCUGUGGCUAGACGGCC [C13G G21C G22A G29A U43G], the self-cleavage is reported as 0.37. Work on GGCAGAGCUCAAGACAACGUGGCAAAGUGGCCGUGGCUAGACUGCC [C13G G17A U32C] yielded a self-cleavage of 0.11. In the case of GGCAGAGCUCAAGACAGCGUGGCAAAGUGGAUGUCGCUAGAAUGCC [C13G C31A G35C C42A], the self-cleavage is reported as 0.04. GGCAGAGCUCAAGACAGCGUGGCAAAGUGGAUGUGGCGAGACUGCC [C13G C31A U38G] gave a self-cleavage of 0.02. GGCAGAGCUCAAGACAGCGUGGCAAAGUGGCUGUGGGUCGACUGCC [C13G C37G A39C] showed a self-cleavage of 0.05. GGCAGAGCUCAAGACAGCGUAGCAAAGUGGCUGUUGCUAAACGGCC [C13G G21A G35U G40A U43G] gave a self-cleavage of 0. Variant GGCAGAGCUCAAGACAGCGUUGCAAUGUGGCUGUGCCUAGGUUGCC [C13G G21U A26U G36C A41G C42U] has a self-cleavage of 0.02. For GGCAGAGCUCAAGACGGCGUGACAAACUGGCUGUGGCUAGACUGCA [C13G A16G G22A G27C C46A], the self-cleavage was 0.01. Work on GGCAGAGCUCAAGACAGCGUGGCAAAGUAGCUGGGGCUAGACUGCC [C13G G29A U34G] yielded a self-cleavage of 0.07.
